Measurements as given in patent US11951175B2, “Bioconjugates containing sulfamide linkers for use in treatment” (priority 2016, dated 2024).

Test system: Karpas-299 cell xenograft model
Assay: In vivo efficacy of cAC10 ADCs 112-114, Karpas-299 xenograft
Set-up: species or system CB.17 SCID mice
Settings: 1 mg/kg i.v.; ADCs with sulfamide linker (113, 114) compared with PEG-linker ADC (112); FIG. 15
Protocol: CR female CB.17 SCID mice, 8- to 12-week-old at the beginning of the experimental phase, obtained from Charles River Laboratories, USA) were injected with 1×10^7 KARPAS-299 tumour cells in a 50% Matrigel subcutaneous in the flank (Karpas-299 cell xenograft model). When the tumour volume was in the range of 100-150 mm^3, groups of eight mice were injected i.v. with either vehicle, 112 (at 1 mg/kg), 113 (at 1 mg/kg), and 114 (1 mg/kg). Tumors were measured twice weekly.

B1: Conjugate 113: cAC10-(6-N3-GalNAc)2 13d conjugated with sulfamide-linker Val-Cit-PAB-MMAE compound 100, average DAR 1.88 (conjugate, chains of the INN, looked up)
heavy: QIQLQQSGPEVVKPGASVKISCKASGYTFTDYYITWVKQKPGQGLEWIGWIYPGSGNTKYNEKFKGKATLTVDTSSSTAFMQLSSLTSEDTAVYFCANYGNYWFAYWGQGTQVTVSA[no letters for human IgG1 constant region]
light: DIVLTQSPASLAVSLGQRATISCKASQSVDFDGDSYMNWYQQKPGQPPKVLIYAASNLESGIPARFSGSGSGTDFTLNIHPVEEEDAATYYCQQSNEDPWTFGGGTKLEIKRTVAAPSVFIFPPSDEQLKSGTASVVCLLNNFYPREAKVQWKVDNALQSGNSQESVTEQDSKDSTYSLSSTLTLSKADYEKHKVYACEVTHQGLSSPVTKSFNRGEC
modifications: sulfamide Val-Cit-PAB-MMAE, DAR 1.88
In the case of B1, the tumour volume is reported as “significantly outperform”.
